Experimental data published in the supplement of paper PMC3334620.
Whole data set: some 33,000 sequences, median “E-score (-0.5 to 0.5)” near -0.021, cut for the highest 2% near 0.32. This is one part of the list.

Target: T1, Zap1 (UniProt P47043)
T1 sequence: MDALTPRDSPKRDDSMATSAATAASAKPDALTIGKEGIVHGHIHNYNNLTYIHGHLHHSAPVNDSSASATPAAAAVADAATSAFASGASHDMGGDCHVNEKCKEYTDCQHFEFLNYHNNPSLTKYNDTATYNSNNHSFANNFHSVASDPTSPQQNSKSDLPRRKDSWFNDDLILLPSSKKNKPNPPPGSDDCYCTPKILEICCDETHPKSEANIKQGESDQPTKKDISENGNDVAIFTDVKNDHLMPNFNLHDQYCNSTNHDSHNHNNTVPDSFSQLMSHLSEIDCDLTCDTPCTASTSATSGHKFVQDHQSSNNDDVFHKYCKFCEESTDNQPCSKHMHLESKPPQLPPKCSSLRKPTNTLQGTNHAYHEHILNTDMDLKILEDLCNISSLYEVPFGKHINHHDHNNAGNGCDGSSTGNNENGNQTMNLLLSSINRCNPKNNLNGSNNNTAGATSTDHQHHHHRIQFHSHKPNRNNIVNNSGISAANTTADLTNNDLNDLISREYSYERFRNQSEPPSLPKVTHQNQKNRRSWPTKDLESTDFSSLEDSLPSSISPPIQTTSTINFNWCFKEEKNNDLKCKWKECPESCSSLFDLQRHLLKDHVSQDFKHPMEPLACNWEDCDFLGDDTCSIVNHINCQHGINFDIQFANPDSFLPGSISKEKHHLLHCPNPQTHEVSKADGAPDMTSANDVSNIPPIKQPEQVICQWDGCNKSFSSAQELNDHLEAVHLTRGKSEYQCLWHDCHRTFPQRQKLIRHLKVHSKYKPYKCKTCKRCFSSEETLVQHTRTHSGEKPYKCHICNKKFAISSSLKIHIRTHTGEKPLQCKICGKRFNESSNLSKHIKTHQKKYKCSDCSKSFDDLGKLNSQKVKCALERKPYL
Test: PBM E-score (8-mer binding enrichment) (E-score (-0.5 to 0.5)); higher = stronger / more preferred TF binding; most listed sequences are background and not binding sites
Conditions: protein concentration: 200 nM; construct: GST-full length
How it was run: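 E-scores (a modified Wilcoxon-Mann-Whitney statistic) were assigned by the Universal PBM Analysis Suite to every ungapped eight-base word pooled with its reverse complement. The input came from universal all-10-mer Agilent arrays made double-stranded by primer extension and probed with GST-tagged yeast transcription factors at about 100-200 nM. Fluorescent anti-GST detected bound protein, and masliner normalised the scans.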

Sequence	PBM E-score
AACGACTT	-0.183
AGCATCGC	-0.254
AGCGTATG	-0.236
GACTCCTA	-0.0525
CCCGGGTA	0.278
AAACGTTG	-0.122
CATTCTAC	-0.0209
CAATACTA	-0.0617
CAGTCATG	-0.164
CTAAAGGA	0.212
GGGTAGGA	0.095
CCGAACGG	0.0451
CTCCACAA	0.107
GCCCAAAA	0.179
ATTTTTTG	0.0652
AGTGGCAA	-0.0405
AACCCTCC	0.185
ATAAGTCG	-0.254
AACGTTGG	-0.0938
AGGAGACT	-0.428
CACGCTCA	0.0304
CGTGCGCC	-0.216
ATGTGCGA	-0.141
GCGGATAC	-0.00046

Sequence	PBM E-score
ATGGCGGA	-0.168
CACCAAGA	0.0172
ATTGGTCC	0.00808
AGGACCGC	-0.0185
GAAATTTC	-0.0789
GAGTACTA	0.101
AGCTATAG	-0.173
CGACTACA	-0.24
GGGGGTAC	0.186
AGCAAAGA	-0.0273
CAGCTCGC	-0.123
AGTTGAAT	0.0291
AAAGAGCT	-0.135
TCCACCAA	-0.00074
AATTTCTC	0.0707
CTGAAAGC	0.0574
ATGGACTG	-0.263
GCAAGCGA	-0.134
CGACAACC	0.339
AAGGGATA	0.118
AACCAAGA	0.247
CCCTGTCC	0.0191
AATGAAGC	-0.0777
GACTTGAC	-0.0855

Sequence	PBM E-score
CCGTCTTA	-0.0588
ATGTAATC	0.0131
GCGGCAAA	-0.219
AATCCCCC	-0.341
CGAATGTA	-0.156
AATCGCTG	-0.118
CAGCAAGA	-0.00185
CTGCAAAC	-0.0481
CGCCATTA	0.0223
CAATATTA	0.0896
CTCCTAAA	-0.147
TAGGAAAA	0.045
ACCGCTTA	0.12
AAGCTCGG	-0.227
AGAGCTGA	-0.168
AGAGATTG	-0.0514
ATTGTTCC	0.0129
GCGCAGCC	-0.387
AGTCGGCA	-0.147
AGGCGGAG	-0.0819
TACACAGA	0.0113
CCTTACAC	0.0322
TACCGAAA	0.116
AACAAGCG	-0.0254

Sequence	PBM E-score
ATGCTTAG	0.0971
AAGAAGCT	-0.0591
GCGTTGCC	-0.22
CTTAGCGA	0.0604
ACTTACAC	-0.119
GACCATTA	0.256
AGCGCCTG	-0.203
AATGAGTC	-0.0805
CAATGTCG	-0.0226
GGACGCCA	-0.0304
GCCGACCA	-0.0589
CATAGGGG	0.206
AGGTAAGG	0.0588
ATCCTAAC	0.118
CGAGCCGC	-0.157
ACAAATGA	0.0556
AGACTACT	-0.0915
CAAACTCC	0.033
GATAGGCA	-0.161
AGAGACAA	-0.163
TGAGCTAA	-0.0146
AACATGGT	0.134
